Results: PMC12136788
The list shows a part of the results.

B1: chr1:114567884:114567985:-|3pUTR|ENSG00000116752|msi1|total|mutant (ssRNA)
RNA: GGGAGUUCUACAGUCCGACGAUCUGGUAAUUCUAUUUGUAUAUCUCAACAGAAUUAAAAUGUCCCGCUUGGUGGUAUUUUUACCGCCAUAAAAGAAAAUCUUCCGGCUUUCAAAAUAAGGAUGACUUCCGAAUAAUAUUGUGUCAACAGAGGAUUGAGCAUCA
B2: ENSG00000150403:stop:overlap|stop_codon|ENSG00000150403|stop_codon|NA|stop_codon (ssRNA)
RNA: GGGAGUUCUACAGUCCGACGAUCUGUCCAGGUUCCUCAUGGGCAGUGCUCGGGGUGACAAAGAAGGCAACAGAACAGCCCUCUAGCAGAGCGUCAGUGCAGUCGUGUUAUCCCGGCUUUUACAGAAUAUUCUUGUCCUAUUUUCAACAGAGGAUUGAGCAUCA
B3: chr8:74853834:74853946:+|3pUTR|ENSG00000137558|unk|total|mutant (ssRNA)
RNA: GGGAGUUCUACAGUCCGACGAUCAAGUGCUUUUUUUUUUCUGAAUUAAUCCGGUAUUGGUAAAAUAUAUUUUUAAAUUCCGUCCGCUUUAUAAACACAAUCCGAAUUACAAUUAAUUAACAGAGGUAUAAUUGUCUCACUUUCCAACAGAGGAUUGAGCAUCA
B4: chr14:23097777:23097878:+|CDS|ENSG00000179933|msi1|total|mutant (ssRNA)
RNA: GGGAGUUCUACAGUCCGACGAUCGAUGAAGUGUAUUCUUCACUGGUUUGCCAAUUGGUCAGGUCCCCAGCGUGAACGUUUCCCCGAGGACCUGGCCGCUAAGGCAGUGCCAGAAAAAUUACAACCACUGCUGGACCGUCUGGACAACAGAGGAUUGAGCAUCA
B5: chr1:213241816:213241921:+|CDS|ENSG00000136643|unk|FALSE|unique (ssRNA)
RNA: GGGAGUUCUACAGUCCGACGAUCGAGAAACACUAUGCACAGGAGGAUCCCAGGAUGUUAUUUGUAGCAGCUGUUGAUCAUAGUAGUUCAGGAGAUAUGUCUUUGUUACCCAGCUCAGAUCCUAAGUUUCAAGGACUUGGAGUGCAACAGAGGAUUGAGCAUCA
B6: chr8:35759345:35759454:+|CDS|ENSG00000156687|unk|FALSE|unique (ssRNA)
RNA: GGGAGUUCUACAGUCCGACGAUCCAUCAAGGUGGACAGCUCCUGGAAGAACCAAAAUUGCUGCAUUUCAAAGGGAAUACCUUUAGUCUUCAGAUUUCUGUCCUUGAUAUUCCCCCAUUCCUCUGGAGAAUUAAACCAUUCACUCAACAGAGGAUUGAGCAUCA
B7: chrX:23682378:23682503:+|CDS|ENSG00000123131|unk|total|mutant (ssRNA)
RNA: GGGAGUUCUACAGUCCGACGAUCUUCAUUAUUGAUGACAAAGGAAUCCUAAGACAAAUUACUCUGAAUGAUCUUCCUGUGGGCCGAUCAGUGGAUGAGACACUACGUUUGGUUCAAGCAUUCCAGUACACUGACAAACACGGACAACAGAGGAUUGAGCAUCA
B8: ENSG00000058668:stop:overlap|stop_codon|ENSG00000058668|stop_codon|NA|stop_codon (ssRNA)
RNA: GGGAGUUCUACAGUCCGACGAUCCUUCUGUUCCUGCUGUUUCAUCUCCUCCUAUGGGCAAUCAAAGUGGUCAAAGCGUUCCAUAGUUCCCUCCACGAAAGCAUUCAGAAACCCUACAACCAAAAGUCCAUCCACAGCUUCAUGCAACAGAGGAUUGAGCAUCA
B9: chr1:206903316:206905147:-|three_prime_utr|ENSG00000162894|control|control|control (ssRNA)
RNA: GGGAGUUCUACAGUCCGACGAUCUCUGUGCCCUGAGCAUGGCUCUGCCCCCAGGUCGUCUUGCACACCUUGGCAGCCCCCUGUAGUUGACAGGUAAGCUGUAGGCAUGUAGAGCAAUUGUCCCAAUGCCACUUGCUUCCUUUCCAACAGAGGAUUGAGCAUCA
B10: ENSG00000164535:stop:overlap|stop_codon|ENSG00000164535|stop_codon|NA|stop_codon (ssRNA)
RNA: GGGAGUUCUACAGUCCGACGAUCGCAGUACAGGGACUUCAUCCACGUCAGCUUCCAUGACAAGGUUUACGAGCUGCCGUUUUUAGUGGCUCUGGAUCACAGGAAAGAGUCUGUUGUGGUCGCUGUGAGGGGGACCAUGUCUCUCAACAGAGGAUUGAGCAUCA
B11: chr2:223975255:223975490:-|3pUTR|ENSG00000135919|msi1|total|mutant (ssRNA)
RNA: GGGAGUUCUACAGUCCGACGAUCUUUAAAUUCUUUUCCCCCAUCCCCCUCCAAAGUCUUGACCGCAAGCGUUAUUUUGGUGGCCGAAACGGUGAAAUCUCCCGCCUCUUUGUGUUUUUGUUGUUGUUGUUGUUGUUGUUUUAUCAACAGAGGAUUGAGCAUCA
B12: chr2:130338606:130338707:-|3pUTR|ENSG00000136710|unk|total|mutant (ssRNA)
RNA: GGGAGUUCUACAGUCCGACGAUCUACUCAGCCAAAAGAUCAGGACAAUAUGACUUGAGUCCACAAGGACACAAACACCUGAGCCGCUGGGCAGCCCUUGGCAGGGUCUAAGCCAGGAAGUAAAAAUGAUCUGGCCCCGAUAUUCAACAGAGGAUUGAGCAUCA
B13: chr1:71070866:71070979:-|CDS|ENSG00000132485|unk|total|mutant (ssRNA)
RNA: GGGAGUUCUACAGUCCGACGAUCGAGGAUGAAGAUGACGCUGAUCUCUCAAAAUAUAAUCUUGAUGCCAGUGAAGAAGAAGACCGUAAUAAAAAGAAAUCUAACCGACGAAGUCGCUCAAAGUCUCGAUCUUCACAUUCACGACAACAGAGGAUUGAGCAUCA
B14: chr7:56058368:56058516:+|CDS|ENSG00000146731|unk|total|mutant (ssRNA)
RNA: GGGAGUUCUACAGUCCGACGAUCUACAAGAGUGCAGAAGAGAGAGAAAAACUCGUGAAAGCUGAAAGAAAAUUCAUUGAAGACCGGGUUAAAAAAAUAACCGAACUGAAAAGGAAAGUCUGUGGCGAUUCAGAUAAAGGAUUUCAACAGAGGAUUGAGCAUCA
B15: chr16:84129640:84129741:-|CDS|ENSG00000103160|unk|total|mutant (ssRNA)
RNA: GGGAGUUCUACAGUCCGACGAUCCUUGCAAUAUGAAUAUGCCUCUAAAGGAAUCUUUGUACAGAGUCUAAUCCCUUUCUAUGCCGCCACCAGCAUGACAGCACCCAGCAACUUUCUGCACAGGUGCUCGUGGUUGGUGCCUUCCAACAGAGGAUUGAGCAUCA
B16: ENSG00000182446:stop:overlap|stop_codon|ENSG00000182446|stop_codon|NA|stop_codon (ssRNA)
RNA: GGGAGUUCUACAGUCCGACGAUCGCACGUUCAUGAACCAGCCAGGCACAGGCCACUGCGAGAUGUGCAGCCUCCCCAGGACCUAGGGCGCCUGCCCUCUGCUGGCUAGGACCGGGCCCAGCCCAGCCCUUCCUGAAGCCAGAACAACAGAGGAUUGAGCAUCA
B17: chr17:28717212:28717708:-|CDS|ENSG00000109113|control|control|control (ssRNA)
RNA: GGGAGUUCUACAGUCCGACGAUCGGUGGUCGUAGCGUCUCCGAGACCGCGGACUCCCGUAGGGUCCCCGUGGCCCCGAGUUGUAGUCGGGACACCCCGGCCGCGGGUGAUCGUCGGGUCUCCACGCGCCCGGGUCGCUGACGCCAACAGAGGAUUGAGCAUCA
B18: chr3:94060950:94061511:-|CDS|ENSG00000178700|control|control|control (ssRNA)
RNA: GGGAGUUCUACAGUCCGACGAUCAGUAGACAUGAUUUGGAUAGUUGGUGGCAGUUCUGUUUAUAAGGAAGCCAUGAAUCACCUAGGCCAUCUUAAACUAUUUGUGACAAGGAUCAUGCAGGACUUUGAAAGUGACACGUUUUUCAACAGAGGAUUGAGCAUCA
B19: chr4:41699229:41699330:+|3pUTR|ENSG00000064042|msi1|FALSE|unique (ssRNA)
RNA: GGGAGUUCUACAGUCCGACGAUCGAUUACAUGAAUAUUGCACAUUCCCUUCUGGUUUCACAAACCCAUUUAUACAUAUUUCUUAGUGAGGCUCAUUGUACAUGUAUUGAAGCUAGAAUCGAGUCAAGAAAAAUAAAGCCCCAUCAACAGAGGAUUGAGCAUCA
B20: chr9:121180810:121180911:-|3pUTR|ENSG00000119396|msi1|total|mutant (ssRNA)
RNA: GGGAGUUCUACAGUCCGACGAUCUUUGGAUAAAUUUCCUGUUGUGUGGGUGGCAUUUUUCUUAACGAGAUUUGCUUCUGUCUCCGCCUCACACAGGGAAAAUAUCCAUUUAUCUUCUCUCUCGUGCUUAAUUAACCGCUUUAUCAACAGAGGAUUGAGCAUCA
B21: chr3:10940499:10940600:+|3pUTR|ENSG00000132164|unk|total|mutant (ssRNA)
RNA: GGGAGUUCUACAGUCCGACGAUCGGGGAGGGCAAUGUGGGGGCAGGGGAACAUGUCAUUGUGAUGACUUUUUUGAUAUUCAUCCGAAACAAUACAUCCUUUCUGAGAUAUUUACAGUAUUAUUAAAAAAUGAAAAAGGUUGUACAACAGAGGAUUGAGCAUCA
B22: chr5:74627411:74627511:-|3pUTR|ENSG00000171617|msi1_unk|FALSE|overlapping (ssRNA)
RNA: GGGAGUUCUACAGUCCGACGAUCUUUGUAAAACUGUUAUUUUUUUUUUUUUCACAAUGUGAAACUGAAGGUCAAUAAAUUAUUAGAGAUUUUCUCUUCAUUAUGUGUGUGGGUCUUCAUUUGAAUAAGACACAAUUUGAGGCACAACAGAGGAUUGAGCAUCA

Target: T1, UNK ZnF1-6 (called full-length) (human, UniProt Q9C0B0 30-357)
T1 sequence: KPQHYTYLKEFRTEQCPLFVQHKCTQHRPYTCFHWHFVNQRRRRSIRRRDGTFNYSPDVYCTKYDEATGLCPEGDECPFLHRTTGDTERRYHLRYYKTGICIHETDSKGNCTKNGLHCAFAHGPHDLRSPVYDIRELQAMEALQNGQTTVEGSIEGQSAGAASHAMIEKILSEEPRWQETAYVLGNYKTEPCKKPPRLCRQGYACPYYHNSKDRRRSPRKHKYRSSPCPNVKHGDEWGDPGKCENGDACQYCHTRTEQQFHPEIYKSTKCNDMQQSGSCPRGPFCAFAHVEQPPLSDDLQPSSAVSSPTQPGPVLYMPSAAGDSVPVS
Assay: nsRBNS (natural sequence RNA bind-n-seq); RBNS binding buffer (assumed for nsRBNS): 25 mM Tris pH 7.5, 150 mM KCl, 3 mM MgCl2, 0.01% Triton X-100, 500 ug/ml BSA, 20 U/ml SUPERase-In, 4 C; UNK is unkempt and MSI1 is Musashi-1; names of the RNAs are library labels; protein concentration not given here; high values mean tight binding

Q: Which binding signal does the source give for B1 here?
A: 0.399 enrichment R

Q: How did the binding signal turn out when B2 was run?
A: 1.28 enrichment R

Q: B3 was tested. Which binding signal did it give?
A: 1.19 enrichment R

Q: Which binding signal does the source give for B4 here?
A: 0.36 enrichment R

Q: With B5 as the binder, how does the binding signal read?
A: 0.79 enrichment R

Q: Which binding signal does the source give for B6 here?
A: 0.403 enrichment R

Q: Which binding signal does the source give for B7 here?
A: 0.441 enrichment R

Q: For B8, which binding signal is on record?
A: 0.612 enrichment R

Q: For B9, which binding signal is on record?
A: 0.728 enrichment R

Q: Which binding signal does the source give for B10 here?
A: 0.231 enrichment R

Q: Which binding signal does the source give for B11 here?
A: 1.05 enrichment R

Q: With B12 as the binder, how does the binding signal read?
A: 0.645 enrichment R

Q: Which binding signal does the source give for B13 here?
A: 0.409 enrichment R

Q: B14 was tested. Which binding signal did it give?
A: 0.427 enrichment R

Q: B15 was tested. Which binding signal did it give?
A: 0.388 enrichment R

Q: With B16 as the binder, how does the binding signal read?
A: 0.263 enrichment R

Q: How did the binding signal turn out when B17 was run?
A: 1.16 enrichment R

Q: For B18, which binding signal is on record?
A: 0.502 enrichment R

Q: Which binding signal does the source give for B19 here?
A: 0.637 enrichment R

Q: B20 was tested. Which binding signal did it give?
A: 0.485 enrichment R

Q: How did the binding signal turn out when B21 was run?
A: 1.41 enrichment R

Q: B22 was tested. Which binding signal did it give?
A: 1.17 enrichment R
